Results on 167 variants are retold here after the RNAGym collection of RNA variant scans (doi:10.7554/elife.90254).

Read counts are not given, so values of variants with three or more changes are uncertain.

The chains are these.
B1: OR4K15 (parent)
chain: GUUAACGGUCAUAGGCCAUGGAAACUAGGAGCACCAUUUCGCUGCCAGUGAAGAAAUGAACAAAGAAAAUCUGGGCCAGGCAGGCAUCAAAAGAAAUAGUCUUGCGCUCAACCAGAAAGUCUGUAAUCAUUUUAAGGGUA

This data set covers variants of B1. Put plainly: self-cleavage, relative activity (ratio to wild type); higher = more cleavage; in vitro, sequencing; the parent is a self-cleaving ribozyme.
Consider U39C A78U A86G U87A U120A, for which the self-cleavage was 0.22. The same measure for U39C A59G A64U U127G: 1.27; for U39C C77A U108C: 0.03. On to U39C U49C A52G A78U A94G, for which the self-cleavage amounted to 0.11.

For U39C A52G U108C A135G, the self-cleavage was determined as 0.02. U39C A47G A56G: the self-cleavage stood at 0.58. In the case of U39C A47G A59G A60G A78U A135G, the self-cleavage is 0.43. The same measure for U43A A78G G123A U131C: 0.03. C40U A62G U87C A94G U133C: the self-cleavage is 0.56. As for U38G U43G G83A A110G A129G, the self-cleavage stood at 0.12. The same measure for U39A U43C A126G: 0.8. The same measure for U38C U100C U132C: 3; for U39C A90G G106A: 0.01; for C40A A52U U72C A126G: 0.05.

Consider U39C A78G A91G U97A, for which the self-cleavage was determined as 0.17. The same measure for U39C U100C U127C: 1.03.

For the variant U38G A67G A78U U102C A118G, the self-cleavage was found to be 1.06.

For the variant U38G A78G A94U A118G U131C U132C, the self-cleavage stood at 0.18. The same measure for U39A U57C A118G: 1.46; for C40U A62G U131C: 1.84; for U39A A92G U122C: 1.93. The result for U39C A63G U103C U108C reads 0.01; that for U39A G50C A51G U102C, 1.25. Regarding C40U U43C A68G A118U, the self-cleavage came to 0.38. The result for U39C C40U A55G A59G reads 0.58; that for U43A A63G A86G A125G U131C, 0.72; that for U39A A51G A82G U87C, 0.7.

With U39C U70C C77U, the self-cleavage stood at 1.96. The same measure for C40A A56G U139C: 0.64; for U39C U72A A117G: 0.16; for U39C U87A A117G: 0.42. As to U39C A55G A59G U100C, the self-cleavage amounted to 1.62. The result for U39C G83A A90G G99A reads 0.83; that for U39C A66U A82G A116G, 0.26; that for U43A A118U U127C, 0.51. The same measure for U39A A91G A114C: 0. The same measure for U39A A98G A118G: 0.41; for G41A U103C C121U: 1.46; for U39A A89G A111G A140G: 0.

Consider U39A A78G A92G A111G, for which the self-cleavage was found to be 0.03.

Regarding U39C A60G A116G, the self-cleavage was determined as 0. The result for U43C A47U A91G U108C A135G reads 0; that for U39C A67G A68G A90G, 0.93; that for U39A A95C A98G A129G, 0.99. Turning to U43A U49A A68G A94G U103C A114U, the self-cleavage worked out at 0.09. For the variant U39A U70A A111G, the self-cleavage worked out at 0.03. In the case of U43A A90G A95G, the self-cleavage came out at 2.36. Turning to U38C U49C U108C, the self-cleavage came out at 0.02. For the variant U39C G65U U100A A118G, the self-cleavage is 0.46.

With U39A A55G U139C, the self-cleavage came out at 1.24. The same measure for U38C U43C U72C A95G: 0.54; for G41A A52G A56U A62G A82G C101A A110U: 0.05; for U39C A64U A82U A91G: 0.17.

U43A A92G A111G U124C: the self-cleavage worked out at 0.01. As to U39C A60G C112A A126G, the self-cleavage worked out at 0. The same measure for G41A A51U A118G U132C: 0.92; for U43A U103C A110U: 0.96. The result for U39C U102C U108A A117G reads 0. The same measure for U39C G80A A90G: 0.26; for U39A A62G U70A: 1.14; for U39A A59G A86G U97C: 0.57. Regarding U43A U87C A118G A129G, the self-cleavage was found to be 0.03. The same measure for U43C A47G U70C U100C U130C A135G: 1.17; for U39C A92G U103C: 1.32; for U43A A62G A86G A90G: 0.84. Take U39C A78G A96U A116G: the self-cleavage came to 0.12. The result for U39C U43A A129G reads 0.78; that for C40A A110G U122C, 0.13; that for C40A A69G A116G, 0.63.

With U39A A51G U108C, the self-cleavage is 0.03. The result for U39C A82G U87C A117G reads 0.36; that for U43A A60U U87C A96U A116G, 1.34. The same measure for U39G U43C A110G A114G A118U: 0.02; for C40U A56G A86C A110U A125G: 0.24. The result for U43A A116G U122C reads 0.33; that for G41C U43A U97C, 0.87. In the case of C42U A59G A60G A111G, the self-cleavage turned out to be 0.02. U39A A82G U132C U133C U139C: the self-cleavage turned out to be 0.69.

For the variant U39C A78C A86U, the self-cleavage is 0.61.

U43A A82G A90C U127A: the self-cleavage worked out at 0.33. The same measure for U38G A66G A116G: 1.21; for U39C A51U U127C: 0.71.

U38C U70A U87C: the self-cleavage is 0.72. As for U39C A56U U72G, the self-cleavage turned out to be 0.15. The same measure for U39C A47U A67G A92U: 0.13; for U39C A51G U131C: 1.89. The result for U39C A63G A86U U120C reads 1.02; that for U39C U49C U70C A94G, 0.81; that for U39C A69G A135U, 2.04.

In the case of C40U A98G U127A, the self-cleavage was determined as 1.19. For the variant U39C G83U A91G, the self-cleavage was 0.09. The same measure for U39C U43C A47G A96U A117G: 1.37; for U39C A63G A116G A126G: 0.79; for U39C A95G A110G A116G: 0.16. The result for U43A A111G U132C reads 0; that for U39C A47U A62G A92G A94G, 0.39; that for C40G U100C A117G, 2.13. The same measure for U39C A82G A117G: 0.33; for U39C U49C G53A A68G: 1.21; for U39C A91G A96G U97A U122C: 0.49.

As for U39C A59G U120C A126U, the self-cleavage came out at 0.4. The same measure for U39A U57A A64G: 1.07. U43A U124C U130C: the self-cleavage is 0.56.

As for U39C A63G U108C, the self-cleavage is 0.01. Regarding U38C U43G A52G U122C, the self-cleavage came to 0.55. The same measure for U43A A63G A94G: 0.69.

For U39A U43A A86U, the self-cleavage is 1.92. The same measure for U39C A47U A59U A63G U72G: 0.38. Consider U43A A56G A91U, for which the self-cleavage worked out at 1.66.

As for U39C A110G U130C U133C, the self-cleavage amounted to 0.1. The same measure for C42U A96U U122A: 2.08. C42G U49C A51U A86U: the self-cleavage came out at 1.15. The result for U39C A95G U108C A126G U131C reads 0; that for U39C A56G U57A A92G, 1.41. As for U43A A54G U57C A68G G119A, the self-cleavage turned out to be 2.52. Turning to U43A A54U A66U U97A U103C, the self-cleavage was found to be 0.07.

In the case of U39C A68G A69G A95C, the self-cleavage stood at 0.71. U39A G50U A126G: the self-cleavage was 0.96. As for U39C A82G A86G A91G, the self-cleavage was 0.04. Turning to U39C A55G U72A A111G, the self-cleavage was 0.

Turning to U43A A51U A91G A111U A116U, the self-cleavage was 0.01. As to U43A A52G G58A U127A A135C, the self-cleavage is 1.82. The result for U39A A89C A94G reads 2.4. Consider U39C A47G A114G, for which the self-cleavage is 0.16. For the variant U43A A96G U130C, the self-cleavage worked out at 0.43. Regarding G41C A54G U87C U131C, the self-cleavage stood at 0.88.

In the case of G41U A96G G115A G138U, the self-cleavage turned out to be 0.38. Consider C40U A55G U122C U127G, for which the self-cleavage was 1.2.

G41A A54G A89G: the self-cleavage worked out at 1.72. The result for U39C A126U U132C reads 1.58; that for G41A U49C U87A A91G A118G, 0.64. The result for U39C U49A A64U reads 1.61. For the variant C42G A51U A95G A96G, the self-cleavage came out at 0.53.

With U39C A89U A110C, the self-cleavage was 0.24. Take U39A G48A U122C: the self-cleavage amounted to 0.17. For U39C A63G A117G, the self-cleavage turned out to be 1.59. As to U39A A54G A63G A116G A140G, the self-cleavage came out at 0.59.

Consider U39A A52G G79A A82U A91G A92G, for which the self-cleavage turned out to be 0.23. The result for C42U A68U C109U reads 0.29; that for U43A A69G A92G A118G, 0.67. As for U43A A90U A111U, the self-cleavage was found to be 0.04.

Take U43A A55G U127C: the self-cleavage turned out to be 0.41. The result for U39G A55C U97A A111G A114G reads 0.02; that for U39C G74A U130C, 0.11.

Regarding U38C U100C A111G U127A G136A, the self-cleavage was determined as 0.01. As for U43A A64G A78U A91G A92U U108A, the self-cleavage was determined as 0.02.

For U39A A52G U72C A126G U130C, the self-cleavage came out at 0.11. The result for U39A A54U A110U reads 1.52. Take U39A A66G G83A U103C: the self-cleavage worked out at 0.28.

For the variant U39C A67G A117G U132A, the self-cleavage stood at 1.85.

With U43A A59G U70A A82U, the self-cleavage was 0.09. The result for C40U A59U U87C U102C reads 1.85; that for U39C U102C C109U, 0.56. Turning to U38C U72A U131C, the self-cleavage was found to be 0.25. The result for U39C A89G A98G U133C reads 0.91; that for U38G A67G A135G, 2.34; that for U43A U49A U100A, 0.71.

For the variant U39C U108C U133C, the self-cleavage was 0.01. For the variant U39C A69U A118G A125G, the self-cleavage stood at 0.14. The same measure for G41U A69G A78G A94G A95G A111G: 0.03; for U43A A59G A63G U70A A134G: 0.84. The same measure for U39C A51G A66G A89U: 1.36; for U43A A54G A78U: 0.65; for U39C U43A A94G U132C: 1.16. With U39A A66G U72C U100C, the self-cleavage came out at 0.54.

U38C U43C C76G U124C U131A: the self-cleavage is 0.06. The result for U43A G80A U87C reads 0.26.
